B1: CPEB3 Ribozyme (parent)
chain: UAACAGGGGGCCACAGCAGAAGCGUUCACGUCGCAGCCCCUGUCAGAUUCUGGUGAAUCUGCGAAUUCUGCUGUAUAUCUC

The source gives no read counts; variants with many changes may rest on few reads.

Variants of B1 are the subject of the data set. The data set is described as follows: self-cleavage, relative activity (ratio to wild type); higher = more cleavage; in vitro, sequencing. Put shortly:
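After error-prone PCR and barcoding, CPEB3 ribozyme mutant libraries were transcribed with T7 RNA polymerase at 37°C for 5 hours, then given 15 min with DNase I before an EDTA stop, and they cleaved during both steps. Reverse transcription with template switching preceded Illumina sequencing. Relative activity divides a variant's cleaved/total read fraction by the unmutated ribozyme's. At least 5 reads were required per variant, and three batches were averaged.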
As for UAACAGGGGGCCACAGCAGAAGCGAUCACGUCGCAGCGCCUGUCAGAAUCAGGUGAAUCUGCGAAUUCUGCUGUAUAUCUC [U25A C38G U48A U51A], the self-cleavage was found to be 0.06.

UAACAGGGGGCCACAGCAGAAGCGACCACGUCGCUGCCCCUGUCGGAUUCUGAUGAAUCUGCGAAUUCUGCUGUAUAUCUC [U25A U26C A35U A45G G53A]: the self-cleavage worked out at 0.17. The figure for UAACAGGGGGCCACAGCAGAAGCGAUCACGACGCAGCCCCUGUCUGAUUCUGGUGAAUCUGCGAAUUCUGCUGUAUUUCUC [U25A U31A A45U A77U] is 0.11; for UAACAGGGGGCCACAGCAGAAGCGAUCACGUCGCAGCCCCUGCCAGAUUCUGGUGAAUCUGCGAACUCUGCUGUAUAUCUC [U25A U43C U66C] it is 0.24; for UAACAGGGGGCCACAGCAGAAGCGAUCACGUCGCAGCCCCCGUCAGAUUCUGGUGAAUCUGCGAAUUCUGCAGUAUAUCUC [U25A U41C U72A] it is 0.07. As for UAACAGGGGGCCACAGCAGAAGCGAUCACGUCGCAGCCCCUGUCAGACUCUGGUGAAUCUGCGAAUUCUGCUGUAUACCUC [U25A U48C U78C], the self-cleavage amounted to 0.47. As to UAACAGGGGGCCACAGCAGAAGCGAUCACGUCGCAGCACCUGUCAGAUUCUGGUGAAUCUGCGAAUUCUGCUGUAUGUCUC [U25A C38A A77G], the self-cleavage was 0.47. Take UAACAGGGGGCCACAGCAGAAGCGAUCACGUCGCAGCCCCUGUCAGACUCUGGCGAAUCUGCGAAUUCUGCUGUAUAACUC [U25A U48C U54C U78A]: the self-cleavage is 0.14. Then UAACAGGGGGCCACAGCAGAAGCGCUCUCGUCGCAGCCCCUGUCGGAUUCUGGUGAAUCUGCGAAUUCUGCUGUAUAUCUC [U25C A28U A45G], with 0.24; and UAACAGGGGGCCACAGCAGAAGCGAUCACGUCGCAGCCCCUGUCAGAUUCUGGCGAAUCUGCGAAUUCUGCUGUAUACCUC [U25A U54C U78C], with 0.39. The figure for UAACAGGGGGCCACAGCAGAAGCGCUCCCGUCGCAGCCCCUGUCAGAUUCUGGUGAAUCUGCGAGUUCUGCUGUAUAUCUC [U25C A28C A65G] is 0.15; for UAACAGGGGGCCACAGCAGAAGCGAUCACGUCGCAGCCCCCGUCAGAUUCUGGUGAACCUGCGAAUUCUGCUGUAUAUCUC [U25A U41C U58C] it is 0.09. Regarding UAACAGGGGGCCACAGCAGAAGCGACCACGACGCAGCCCCUGUCAGAUUCUGGUGAAUCUGCGAAUUCUGCUGUAUGUCUC [U25A U26C U31A A77G], the self-cleavage is 0.23. For the variant UAACAGGGGGCCACAGCAGAAGCGAUCACGUCGCAGCCCCUGUCAGAUUCUGGUGAAUCUGCGAAUUCCGCUGUACAUCUC [U25A U69C U76C], the self-cleavage amounted to 0.06. Then UAACAGGGGGCCACAGCAGAAGCGAUCACGUCGCAGCCCCUGUCAGAUUCUGGAGAAUCUGCGUAUUCUGCUGUAUAUCUC [U25A U54A A64U], with 0.19; and UAACAGGGGGCCACAGCAGAAGCGCUCGCGUCGCAGCCCCUGUCAGUUUCUGGUGAAUCUGCGUAUUCUGCUGUAUAUCUC [U25C A28G A47U A64U], with 0.07. As to UAACAGGGGGCCACAGCAGAAGCGAUCACGGCGCAGCCCCUGUCAGAUUCUGGAGAAUCUGCGAAUUCUGCCGUAUAUCUC [U25A U31G U54A U72C], the self-cleavage was 0.23.

As to UAACAGGGGGCCACAGCAGAAGCGAUCACGUCGCAGCCCCUGUCAGAUUCUGGUGAAUCUGCGAAUUCUACUGUAUAUCCC [U25A G70A U80C], the self-cleavage stood at 0.16. The figure for UAACAGGGGGCCACAGCAGAAGCGAUCACGUCGCAGCCCCGGUCGGAUUCUGGUGAAUCAGCGAAUUCUGCUGUAUAUCUC [U25A U41G A45G U60A] is 0.1; for UAACAGGGGGCCACAGCAGAAGCGAUCACGUCGCAGCCCCAGUCAGAUUCCGGUGAAUCUGCGAAUUCUGCUGCAUAUCUC [U25A U41A U51C U74C] it is 0.24. Then UAACAGGGGGCCACAGCAGAAGCGACCACGUCGCAGCCCCUGUCAGAUUCUGGUGAAUCUGCGAAUUCUGCCGUAUAUCUC [U25A U26C U72C], with 0.1; and UAACAGGGGGCCACAGCAGAAGCGAUCACGUCUCAGCCCCUGUCAGAUACUGGUGAAUCUGCGAAUUCUGCUGUAUAUCUC [U25A G33U U49A], with 0.16; and UAACAGGGGGCCACAGCAGAAGCGAUCACGUCGCAGCCCCUGUCAGAUUCAGGUGAGUCUGCGAAUCCUGCUGUCCAUCUC [U25A U51A A57G U67C A75C U76C], with 0.05.

Take UAACAGGGGGCCACAGCAGAAGCGAUCACGUCGCAGCACCUGUCAGAUUCAGGUGAAUCUGCGUAUUCUGCUGUAUAUCUC [U25A C38A U51A A64U]: the self-cleavage stood at 0.04. Then UAACAGGGGGCCACAGCAGAAGCGCUCGCGCCGCAGCCCCCGUCAGAUUCUGGUGAAUCUGCGAAUUCUGCUGGAUGUCUC [U25C A28G U31C U41C U74G A77G], with 0.21; and UAACAGGGGGCCACAGCAGAAGCGAUCACGUCGCAGCCCCUGUCAGAUUCUGGUGAAUCUGCCAAUUCUGCUGUAUAUCCC [U25A G63C U80C], with 0.37. Turning to UAACAGGGGGCCACAGCAGAAGCGAUCACGUCGCAGCCCCAGUCAGAUUCUGGCGAAUCUGCGAAUUCUGCUGUAUAUCUC [U25A U41A U54C], the self-cleavage stood at 0.21.

For the variant UAACAGGGGGCCACAGCAGAAGCGCUCUCGUCGCAGCCCCUGUCAGAUUCUGGUGAAUCUGCCAAUUCUGCUGUAUAUCUC [U25C A28U G63C], the self-cleavage turned out to be 0.09.

Take UAACAGGGGGCCACAGCAGAAGCGAUCACGUCGCAGCCCCCGUCAGAUUCUGGUGAAUCUGCGAAUCCUGCUGUAUAUCUC [U25A U41C U67C]: the self-cleavage stood at 0.09. The figure for UAACAGGGGGCCACAGCAGAAGCGAUCACGUAGCAGCCCCCGUCAGAUUCUGGUGAUUCUGCGAAUUCUGCUGUAUAUUUC [U25A C32A U41C A57U C79U] is 0.06; for UAACAGGGGGCCACAGCAGAAGCGAUCACGUCGCAGCCCCCGUCAGAUUCUGGUGGAUCUGCGAAUCCUGCUGUAUAUCUC [U25A U41C A56G U67C] it is 0.1; for UAACAGGGGGCCACAGCAGAAGCGAUCACGUCGCAGCCCCUGUCAGAUACUGGUGAAUCUGCGAAUUCUGCUGUAUAUCCC [U25A U49A U80C] it is 0.2. Take UAACAGGGGGCCACAGCAGAAGCGACCACAUCGCAGCCCCUGUCAGAUUCUGAUGAAUCUGCGAAUUCUGCUGCAUAUCUC [U25A U26C G30A G53A U74C]: the self-cleavage is 0.12. With UAACAGGGGGCCACAGCAGAAGCGAUCACGUCGCAGCCCCUGUCAGAUUCUGGUGAAUCCGCGAAUUCUGCUGUAUUUCUC [U25A U60C A77U], the self-cleavage is 0.14.

For the origin of these results see the RNAGym collection of RNA variant scans (doi:10.1093/nar/gkz1192).
